Experimental findings from patent US20230145766A1 are described below.

The target of experiment [1] is T1, IL-2Rβ receptor with an avi tag and an His6 tag at the C-terminus (human), P14784.
T1 chain: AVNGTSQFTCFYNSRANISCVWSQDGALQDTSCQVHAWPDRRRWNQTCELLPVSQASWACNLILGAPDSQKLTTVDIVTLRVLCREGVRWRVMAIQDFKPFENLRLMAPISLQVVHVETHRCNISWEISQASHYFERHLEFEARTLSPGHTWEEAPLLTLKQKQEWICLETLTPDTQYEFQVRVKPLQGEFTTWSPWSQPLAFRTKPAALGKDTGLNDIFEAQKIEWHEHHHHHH
Nature of the experiment: BLI (ForteBio); biotinylated receptor on SA sensor, 100 nM IL-2-Fc in solution, 1:1 model. Conditions: remark: other sources report otherwise. (In general: In BLI a coated tip is dipped into the sample, and binding shifts an interference pattern.)

The target of experiment [2] is IL-2 receptor on the surface of human lymphocytes (T cells, NK cells, Treg cells from PBMC) (human). Kind of experiment: cell-based or functional assay.
Experiment [3] has the same target. Nature of the experiment: cell-based or functional assay. The source holds these as a separate data set.

A value given as a limit tells only on which side of the number the result lay.

B1: Y040 (IL-2^.3X-2*(G4S)-FcLALA) (Fc fusion)
chain: APTSSSTKKTQLQLEHLLLDLQMILNGINNYKNPKLTDMLTFEFYMPKKATELKHLQCLERELKPLEEVLNLAQSKNFHLRPRDLISNINVIVLELKGSETTFMCEYADETATIVEFLNRWITFSQSIISTLTGGGGSGGGGS[omitted - human IgG1 Fc with changes]
modifications: here or on the partner: biotin on the avi tag (enzymatic labelling with BirA)
For the molecule B1, the Kd (usually a measure of binding affinity in units of concentration) in experiment [1] was determined as 16 nM.

B2: 2131 (Fc fusion)
chain: APASSSTKKTQLQLEHLLLDLQMILNGINNYKNPELEEMLTAKFYMPKKATELKHLQCLEEELKPLEEVLNLAGDASIHDLISDINVIVLELKGSETTFMCEYADETATIVEFLNRWITFSQSIISTLTGGGGSGGGGS[omitted - human IgG1 Fc with changes]
On to B2, for which the Ratio of reduction: IL-2 mutant EC50 (CD4+ or CD8+)/Y-144 EC50 (pSTAT5) in experiment [2] is greater than 1000 times.

B3: Y092 (IL-2^.Y30E1.15BCL-2*(G4S)-FcLALA) (Fc fusion)
chain: APTSSSTKKTQLQLEHLLLDLQMILNGINNYKNPELEEMLTAKFYMPKKATELKHLQCLEEELKPLEEVLNLAGDASIHDLISNINVIVLELKGSETTFMCEYADETATIVEFLNRWITFSQSIISTLTGGGGSGGGGS[omitted - human IgG1 Fc with changes]
As for B3, the CD25-pSTAT5 EC50 (CD8+ CD25- T cells) in experiment [3] came out at 0.664 nM.

B4: 2168 (Fc fusion)
chain: APASSSTKKTQLQLEHLLLDLQMILNGINNYKNPELEEMLTAKFYMPKKATELKHLQCLEEELKPLEEVLNLAGDASIHTLISNINVIVLELKGSETTFMCEYADETATIVEFLNRWITFSESIISTLTGGGGSGGGGS[omitted - human IgG1 Fc with changes]
On to B4, for which the Ratio of reduction: IL-2 mutant EC50 (CD4+ or CD8+)/Y-144 EC50 (pSTAT5) in experiment [2] was greater than 1000 times.

B5: 2170 (Fc fusion)
chain: APASSSTKKTQLQLETLLLDLQMILNGINNYKNPELEEMLTAKFYMPKKATELKHLQCLEEELKPLEEVLNLAGDASIHQLISNINVIVLELKGSETTFMCEYADETATIVEFLNRWITFSQSIISTLTGGGGSGGGGS[omitted - human IgG1 Fc with changes]
Take B5: in experiment [2], the Ratio of reduction: IL-2 mutant EC50 (CD4+ or CD8+)/Y-144 EC50 (pSTAT5) was greater than 1000 times.

B6: 2481 (Fc fusion)
chain: APASSSTKKTQLQLEHLLLDLQMILNGINNYKNPKLTRMLTFKFYMPKKATELKHLQCLEEELKPLEEVLNLAGDASIHDLISRINVIVLELKGSETTFMCEYADETATIVEFLNRWITFSQSIISTLTGGGGSGGGGS[omitted - human IgG1 Fc with changes]
For B6, in experiment [2], the EC50 of pSTAT5, CD4+CD25- T cells was determined as 636 nM; the EC50 of pSTAT5, NK cells is 148 nM; the EC50 of pSTAT5, Treg cells was determined as 0.115 nM.

B7: 2169 (Fc fusion)
chain: APASSSTKKTQLQLEHLLLDLQMILNGINNYKNPELEEMLTAKFYMPKKATELKHLQCLEEELKPLEEVLNLAGDASIHNLISNINVIVLELKGSETTFMCEYADETATIVEFLNRWITFSESIISTLTGGGGSGGGGS[omitted - human IgG1 Fc with changes]
As for B7, the Ratio of reduction: IL-2 mutant EC50 (CD4+ or CD8+)/Y-144 EC50 (pSTAT5) in experiment [2] is greater than 1000 times.

B8: 2478 (Fc fusion)
chain: APASSSTKKTQLQLEHLLLDLQMILNGINNYKNPKLTRMLTFKFYMPKKATELKHLQCLEEELKPLEEVLNLAGDASIHDLISDINVIVLELKGSETTFMCEYADETATIVEFLNRWITFSQSIISTLTGGGGSGGGGS[omitted - human IgG1 Fc with changes]
For the molecule B8, in experiment [2], the EC50 of pSTAT5, CD4+CD25- T cells worked out at 1480 nM; the EC50 of pSTAT5, CD8+ T cells was 21700 nM; the EC50 of pSTAT5, NK cells worked out at 22.1 nM; the EC50 of pSTAT5, Treg cells amounted to 0.0618 nM.

B9: 2166 (Fc fusion)
chain: APASSSTKKTQLQLETLLLDLQMILNGINNYKNPELEEMLTAKFYMPKKATELKHLQCLEEELKPLEEVLNLAGDASIHTLISNINVIVLELKGSETTFMCEYADETATIVEFLNRWITFSQSIISTLTGGGGSGGGGS[omitted - human IgG1 Fc with changes]
With B9, the Ratio of reduction: IL-2 mutant EC50 (CD4+ or CD8+)/Y-144 EC50 (pSTAT5) in experiment [2] was greater than 1000 times.

B10: 2454 (Fc fusion)
chain: APASSSTKKTQLQLEHLLLNLQMILNGINNYKNPKLTRMLTFKFYMPKKATELKHLQCLEEELKPLEEVLNLAGDASIHDLISNINVIVLELKGSETTFMCEYADETATIVEFLNRWITFSQSIISTLTGGGGSGGGGS[omitted - human IgG1 Fc with changes]
In experiment [2], B10 displayed an EC50 of pSTAT5, CD4+CD25- T cells of 636 nM; an EC50 of pSTAT5, CD8+ T cells of 34.2 mM; an EC50 of pSTAT5, NK cells of 148 nM; an EC50 of pSTAT5, Treg cells of 0.115 nM.

B11: 2107 (Fc fusion)
chain: APASSSTKKTQLQLEHLLLNLQMILNGINNYKNPELEEMLTAKFYMPKKATELKHLQCLEEELKPLEEVLNLAGDASIHDLISNINVIVLELKGSETTFMCEYADETATIVEFLNRWITFSQSIISTLTGGGGSGGGGS[omitted - human IgG1 Fc with changes]
B11: the Ratio of reduction: IL-2 mutant EC50 (CD4+ or CD8+)/Y-144 EC50 (pSTAT5) in experiment [2] was greater than 1000 times.

B12: 2162 (Fc fusion)
chain: APASSSTKKTQLQLEHLLLDLQMILNGINNYKNPELEEMLTAKFYMPKKATELKHLQCLEEELKPLEEVLNLAGDASIHNLISNINVIVLQLKGSETTFMCEYADETATIVEFLNRWITFSQSIISTLTGGGGSGGGGS[omitted - human IgG1 Fc with changes]
In the case of B12, the Ratio of reduction: IL-2 mutant EC50 (CD4+ or CD8+)/Y-144 EC50 (pSTAT5) in experiment [2] is greater than 1000 times.

B13: Y089 (IL-2^.Y30E1.truncate1-2*(G4S)-FcLALA) (Fc fusion)
chain: APTSSSTKKTQLQLEHLLLDLQMILNGINNYKNPELEEMLTAKFYMPKKATELKHLQCLEEELKPLEEVLNLAQSKNFHDLISNINVIVLELKGSETTFMCEYADETATIVEFLNRWITFSQSIISTLTGGGGSGGGGS[omitted - human IgG1 Fc with changes]
As to B13, in experiment [3], the CD25-pSTAT5 EC50 (CD8+ CD25- T cells) is 2.2 nM.
